We go through 73 sequences from the BET-seq Pho4 binding data (Le et al. 2018).

The other results are listed elsewhere or left out. These are noisy estimates, calculated here from bound and input reads.

The target in the test is T1, Pho4 (S. cerevisiae) (UniProt P07270).
T1 sequence: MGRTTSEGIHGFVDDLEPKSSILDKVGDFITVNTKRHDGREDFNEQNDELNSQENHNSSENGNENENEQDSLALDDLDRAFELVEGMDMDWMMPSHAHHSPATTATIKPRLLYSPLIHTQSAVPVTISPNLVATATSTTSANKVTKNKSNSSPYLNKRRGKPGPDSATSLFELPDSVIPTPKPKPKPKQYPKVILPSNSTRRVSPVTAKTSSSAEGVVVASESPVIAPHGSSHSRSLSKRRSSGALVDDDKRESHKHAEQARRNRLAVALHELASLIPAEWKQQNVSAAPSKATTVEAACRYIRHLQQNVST
The test is described as follows: relative binding free energy (BET-seq); higher = weaker binding. The following applies: reference: library average.
Take TATGGCACGTGTTGTT: the “relative binding free energy” value is -0.04 kcal/mol.

For TCTTTCACGTGGTAAG, the “relative binding free energy” value amounted to 0.36 kcal/mol.

As to AATAGCACGTGGAATG, the “relative binding free energy” value was -0.05 kcal/mol.

For the sequence TGGGGCACGTGTTCTT, the “relative binding free energy” value was -0.04 kcal/mol.

For the sequence TGCTCCACGTGAGGGG, the “relative binding free energy” value was 0.32 kcal/mol.

Consider TATTACACGTGGGGAG, for which the “relative binding free energy” value was found to be 0.01 kcal/mol.

Regarding TAGTACACGTGTTAAG, the “relative binding free energy” value stood at 0.04 kcal/mol.

For GAGGACACGTGTGAAG, the “relative binding free energy” value turned out to be 0.03 kcal/mol.

For the sequence TCTTGCACGTGGGTGG, the “relative binding free energy” value is -0.06 kcal/mol.

Regarding ATATGCACGTGCAGGA, the “relative binding free energy” value is -0.07 kcal/mol.

Consider TTAAGCACGTGCGCGT, for which the “relative binding free energy” value was -0.05 kcal/mol.

As to GTGGACACGTGGTAAG, the “relative binding free energy” value stood at 0.14 kcal/mol.

Consider TTAAGCACGTGTGGTC, for which the “relative binding free energy” value was determined as 0.03 kcal/mol.

Take GTAGGCACGTGGATCG: the “relative binding free energy” value is -0.08 kcal/mol.

As to GGACGCACGTGGTGGC, the “relative binding free energy” value was -0.28 kcal/mol.

As to CTTGGCACGTGGCGTT, the “relative binding free energy” value is -0.21 kcal/mol.

Turning to TATAACACGTGGAGTT, the “relative binding free energy” value is 0.02 kcal/mol.

In the case of AGTTTCACGTGAGGAC, the “relative binding free energy” value was 0.38 kcal/mol.

Turning to CGGTTCACGTGAAGGA, the “relative binding free energy” value stood at 0.28 kcal/mol.

As for ATTATCACGTGTGTCT, the “relative binding free energy” value amounted to 0.15 kcal/mol.

Take TCTCGCACGTGGGTTT: the “relative binding free energy” value is -0.18 kcal/mol.

In the case of TCTGGCACGTGATATG, the “relative binding free energy” value is -0.09 kcal/mol.

As for AAGTACACGTGGAGGC, the “relative binding free energy” value was 0.22 kcal/mol.

As to ATGATCACGTGGCATT, the “relative binding free energy” value is 0.11 kcal/mol.

With CGTTGCACGTGTAATT, the “relative binding free energy” value came to 0.17 kcal/mol.

For the sequence GGGTCCACGTGTTGTG, the “relative binding free energy” value was -0.08 kcal/mol.

On to CGGATCACGTGTGAGG, for which the “relative binding free energy” value worked out at 0.13 kcal/mol.

Take CTGATCACGTGAGGGG: the “relative binding free energy” value is 0.34 kcal/mol.

As to GTGTTCACGTGGTTAT, the “relative binding free energy” value is 0.3 kcal/mol.

For the sequence TTGAGCACGTGCTGGG, the “relative binding free energy” value was -0.11 kcal/mol.

Take TGGATCACGTGATTAA: the “relative binding free energy” value is 0.28 kcal/mol.

In the case of TGGATCACGTGAGCGT, the “relative binding free energy” value was determined as 0.26 kcal/mol.

In the case of GATATCACGTGATTAT, the “relative binding free energy” value was found to be 0.25 kcal/mol.

TAGGGCACGTGACCGG: the “relative binding free energy” value was 0 kcal/mol.

Turning to TGCTGCACGTGTTCGG, the “relative binding free energy” value came out at 0.06 kcal/mol.

Regarding GTAGTCACGTGATGGG, the “relative binding free energy” value was found to be 0.16 kcal/mol.

With TTTGACACGTGAGTGC, the “relative binding free energy” value turned out to be 0.17 kcal/mol.

As to TTGGACACGTGATCGG, the “relative binding free energy” value stood at 0.15 kcal/mol.

For the sequence GATTACACGTGGGTTG, the “relative binding free energy” value was 0.18 kcal/mol.

As to TGGCGCACGTGTGAGG, the “relative binding free energy” value was -0.08 kcal/mol.

On to TCGTGCACGTGTAAGT, for which the “relative binding free energy” value was -0.05 kcal/mol.

Turning to AGGGTCACGTGTGGCC, the “relative binding free energy” value amounted to 0.11 kcal/mol.

As for GGTATCACGTGTTTGG, the “relative binding free energy” value was 0.16 kcal/mol.

With AATAGCACGTGAGGGC, the “relative binding free energy” value was found to be 0.18 kcal/mol.

Turning to ATAATCACGTGTAGTA, the “relative binding free energy” value is 0.04 kcal/mol.

Turning to CTGAACACGTGTGTTG, the “relative binding free energy” value is 0.03 kcal/mol.

For the sequence ATTGCCACGTGGGTGT, the “relative binding free energy” value is -0.25 kcal/mol.

With GCTGTCACGTGGTAGA, the “relative binding free energy” value turned out to be 0.32 kcal/mol.

Turning to TTGGCCACGTGGTTAT, the “relative binding free energy” value was -0.05 kcal/mol.

Take GGTTACACGTGGATAA: the “relative binding free energy” value turned out to be 0.44 kcal/mol.

Take ATTCGCACGTGTCGTG: the “relative binding free energy” value is 0.02 kcal/mol.

In the case of ATCAACACGTGTTGTG, the “relative binding free energy” value is -0.01 kcal/mol.

Take AATAGCACGTGGGTTG: the “relative binding free energy” value is -0.27 kcal/mol.

As for GCAAACACGTGGTGGT, the “relative binding free energy” value is -0.01 kcal/mol.

On to GGTTTCACGTGTGGGA, for which the “relative binding free energy” value was 0.45 kcal/mol.

In the case of GTCTGCACGTGTTCAT, the “relative binding free energy” value came to 0.14 kcal/mol.

For GGTGTCACGTGCTCGA, the “relative binding free energy” value is 0.15 kcal/mol.

Take GTGGGCACGTGATCGA: the “relative binding free energy” value was 0.14 kcal/mol.

Consider CTGAGCACGTGTTTGG, for which the “relative binding free energy” value was -0.03 kcal/mol.

Regarding TTCTGCACGTGTTTGA, the “relative binding free energy” value was 0.01 kcal/mol.

As to GTCTGCACGTGTGTAT, the “relative binding free energy” value stood at 0.17 kcal/mol.

On to TCTGGCACGTGTGTTT, for which the “relative binding free energy” value came to 0.08 kcal/mol.

Take ATTATCACGTGGGGGA: the “relative binding free energy” value turned out to be 0.06 kcal/mol.

Take GGTATCACGTGATCTT: the “relative binding free energy” value came out at 0.27 kcal/mol.

In the case of GTAAACACGTGTATGG, the “relative binding free energy” value is -0.09 kcal/mol.

For TGGGACACGTGGATAG, the “relative binding free energy” value was determined as 0.16 kcal/mol.

With TAGCGCACGTGAAGTT, the “relative binding free energy” value was found to be 0.14 kcal/mol.

On to TGAGTCACGTGTGATG, for which the “relative binding free energy” value stood at 0.28 kcal/mol.

Consider AGTGTCACGTGTTCAG, for which the “relative binding free energy” value worked out at 0.13 kcal/mol.

In the case of ATTATCACGTGTATAT, the “relative binding free energy” value came out at 0.09 kcal/mol.

For CGTGACACGTGGAGGA, the “relative binding free energy” value stood at 0 kcal/mol.

In the case of AGGGACACGTGTAGCG, the “relative binding free energy” value amounted to 0.1 kcal/mol.

For GTTTACACGTGTCGGG, the “relative binding free energy” value stood at 0.29 kcal/mol.
